This note sets out measurements from PubChem BioAssay AID1240 (Sanford-Burnham Center for Chemical Genomics, 2008).

Out of some 50,000 compounds screened, about 800 (1.6%) showed an effect of 50% or more. The list shows a part of the results.

The experiment addresses Bcl-2-like protein 10 (Homo sapiens) (UniProt Q9HD36). The experiment can be described thus: TR3 peptide-Bcl-B binding displacers, biochemical primary FP assay, phenotype converters (AID 1240).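 Note: 0% = Bcl-B with tracer peptide and DMSO and 100% = tracer peptide lacking Bcl-B.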 The following applies: GST-Bcl-B / FITC-TR3 peptide fluorescence polarization; stronger effect = higher value; compound at 3.75 mg/L.
Chain of UniProt Q9HD36 (Q9HD36 whole entry, looked up): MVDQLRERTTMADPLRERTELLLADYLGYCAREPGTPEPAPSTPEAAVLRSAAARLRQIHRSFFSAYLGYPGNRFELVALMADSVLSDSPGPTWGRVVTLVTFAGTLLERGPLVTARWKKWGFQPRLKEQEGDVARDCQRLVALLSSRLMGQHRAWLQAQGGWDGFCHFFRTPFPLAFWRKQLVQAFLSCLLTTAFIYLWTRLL
As to `Cc1ccc(NC(=O)C2CC(=O)N(c3ccc(Br)cc3)C2)cc1` (stereo not drawn), the displacement is 2.5%. With `Cc1ccc(-c2nnc(-c3cccnc3)o2)cc1`, the displacement was 0.7%. The same measure for `COc1cccc(CC(CC(=O)Nc2cc(C)ccc2C)C(=O)O)c1` (stereo not drawn): -4.8%; for `Nc1ccc(C(=O)/C=C/c2ccc(F)cc2)cc1`: 9.6%. As to `O=C(Nc1c(C(=O)N2CCCCC2)cnn1-c1ccccc1)c1ccc(Br)cc1`, the displacement is -11.9%. Turning to `O=C(CCCN1C(=O)c2cccc3cccc(c23)C1=O)NCC1CCCO1` (stereo not drawn), the displacement was found to be 0.9%. On to `CC(Oc1ccccc1)C(=O)Nc1cccc(C(F)(F)F)c1` (stereo not drawn), for which the displacement came to 13.8%. With `COc1ccccc1CNC(=O)CC1S/C(=N\N=C\c2ccccc2)NC1=O` (stereo not drawn), the displacement amounted to 1.2%. Regarding `O=C(Nc1ccc(Br)cn1)C(c1ccccc1)c1ccccc1`, the displacement worked out at 8%. For the compound `O=C(NCCCO)C(=O)NCC1CCCO1` (stereo not drawn), the displacement was 11.4%.

For `COc1ccc(NC(=O)Nc2cc(C(F)(F)F)cc(C(F)(F)F)c2)cc1OC`, the displacement was -14.8%.

Consider `C/C(=N\NC(=O)c1[nH]nc2c1CCc1ccccc1-2)c1ccccc1O`, for which the displacement is -6.1%. The value for `Cc1cccc(N2C(=O)NC(=O)/C(=C/c3ccc(Br)o3)C2=O)c1` was 26.7%. The same measure for `CC(C)N(Cc1ccccc1)C(=O)/C=C/c1ccccc1`: -10.9%; for `CCCOc1ccc(C2C(C#N)=C(C)NC3=C2C(=O)CC(C)(C)C3)cc1OC` (stereo not drawn): -6.4%; for `Cc1ccc(-c2nc3ncccc3o2)cc1NC(=O)/C=C/c1ccco1`: 116%. Consider `COC(=O)c1cc(-c2cccs2)nc2ccc(Br)cc12`, for which the displacement was found to be 104%. For the compound `COc1ccccc1OCCNc1cc(N2CCOCC2)ccc1[N+](=O)[O-]`, the displacement came out at 4.4%. The value for `COc1ccc(C2C3=C(CC(C)(C)CC3=O)OC3=C2C(=O)CC(C)(C)C3)cc1Br` was 10.8%; that for `CCN(CC)C(=O)c1cccc(-c2ccc(OC(C)=O)cc2)c1` was 6.3%. As for `O=C(c1ccccc1F)N1CCN(c2ccc([N+](=O)[O-])c(NCc3ccccc3)c2)CC1`, the displacement came to 8.2%. Consider `CC1(C(=O)NNC(=O)c2ccccc2)CC2C=CC1C2` (stereo not drawn), for which the displacement was 11%. Regarding `O=c1nc(-c2ccccc2)c2cc(SC(F)(F)F)ccc2[nH]1`, the displacement was 9.7%. The value for `COc1ccc(-c2noc(-c3cccc([N+](=O)[O-])c3C)n2)cc1` was 1.5%; that for `Cc1cc(Cl)ccc1OC(C)C(=O)NCCCn1ccnc1` (stereo not drawn) was -1.2%; that for `O=[N+]([O-])c1ccccc1S(=O)(=O)Nc1ccc2c(c1)OCCO2` was 0.8%.

For `CC1(C)CC(=O)C(C(C2=C(O)CC(C)(C)CC2=O)c2ccc(OCc3ccccc3)cc2)C(=O)C1` (stereo not drawn), the displacement was -4.2%. For the compound `CCOc1cccc2c1N(C(=O)c1ccc(OC)cc1)C(C)(C)C(=S)C2=C1SC(C(=O)OC)=C(C(=O)OC)S1`, the displacement was 9.6%. The value for `O=[N+]([O-])c1ccccc1N/N=C/c1ccccc1OCc1ccccc1` was -14%; that for `O=C1N=c2ccccc2=C1c1c(O)n(-c2ccc(Cl)c(Cl)c2)[nH]c1=O` was 20.3%. As to `CCOC(=O)c1ccc(-c2ccc(/C=C3\Sc4ccccc4C3=O)o2)cc1`, the displacement was -37.4%. Consider `CN(C)/C=C1\N=C(c2ccccc2Cl)OC1=O`, for which the displacement was -1.7%. With `O=C1C(Cc2ccccc2)S/C(=N/N=C/c2cccc([N+](=O)[O-])c2)N1c1ccccc1` (stereo not drawn), the displacement is 3.8%.

For `COc1cc(C(=O)NCCc2cccc(Cl)c2)cc(OC)c1OC`, the displacement is 0.1%.

As for `O=C(NCCNc1ccc([N+](=O)[O-])cc1Cl)c1ccccc1Cl`, the displacement was determined as 14.7%. For the compound `COc1cc(C(=O)Nc2cc(Cl)ccc2C)c([N+](=O)[O-])cc1OC`, the displacement is 11.6%. With `Cc1cc(=O)oc2c(C)c(OCC(=O)c3ccc(Cl)cc3)ccc12`, the displacement came to 12.8%. The same measure for `COc1cc(NS(=O)(=O)c2ccc3ccccc3c2)cc(OC)c1`: 10.5%; for `CC1CC(C)CN(S(=O)(=O)c2ccc(F)cc2)C1` (stereo not drawn): -9%; for `COc1cccc(N2C(=O)/C(=C/c3cccc([N+](=O)[O-])c3)SC2=S)c1`: 34.2%. Turning to `O=C1NC(=S)NC(=O)C1=Cc1cc2c(cc1Cl)OCO2`, the displacement was 4.9%. Regarding `CCCOc1cccc(C(=O)Nc2cccc(S(N)(=O)=O)c2)c1`, the displacement is -2.6%. Turning to `O=c1c(Cl)c(Cl)cnn1Cc1ccccc1Cl`, the displacement is 15.9%. On to `COc1cc(OC)cc(C(=O)O/N=C(\c2ccncc2)c2ccc([N+](=O)[O-])cc2)c1`, for which the displacement was 10.5%.

As for `Cc1nc2ccccc2c(=O)n1N1C(=O)CCCC1=O`, the displacement was 11%.

As for `O=C(c1nn2c(c1Cl)NC(c1cccs1)CC2C(F)(F)F)N1CCN(c2ccc(F)cc2)CC1` (stereo not drawn), the displacement was 12.3%.

In the case of `COC(=O)c1c(NC(=O)c2ccc([N+](=O)[O-])cc2Cl)sc2c1CCCCCC2`, the displacement is -6.6%. With `C(=N\n1cnnc1)/c1ccc(OC2CSC2)cc1`, the displacement amounted to 1.1%.

As for `COc1cc(CC(=O)O)c([N+](=O)[O-])cc1OC`, the displacement turned out to be 9.8%. In the case of `CCOC(=O)c1ccc(N2C(=O)c3cccc4c(C(=O)O)ccc(c34)C2=O)cc1`, the displacement is 0.8%. As to `CCN(CC)c1ccc(C(=O)N2CCN(Cc3ccccc3)CC2)cc1`, the displacement was -2.8%.

Consider `O=C(N=Nc1c(O)n(CN2CCCCCC2)c2ccccc12)c1ccncc1`, for which the displacement was found to be 16.8%. Regarding `O=C(CCNc1ccc(Br)cc1)c1ccc([N+](=O)[O-])cc1`, the displacement is -16.2%. Turning to `CC(=O)NC1=NN(C(C)=O)C(c2ccc(OC(C)=O)cc2)S1` (stereo not drawn), the displacement is -3.4%. Regarding `CCOC(=O)C1=C(C)N=c2s/c(=C\c3ccc(N(CC)CC)o3)c(=O)n2C1c1ccc(OC)c(OC)c1` (stereo not drawn), the displacement was -25%.

As to `C=CCNC(=O)C(=O)NCc1ccccc1`, the displacement worked out at 7.6%. Regarding `CCOC(=O)/C(C#N)=C/c1c(OCC)n(CC)c2ccccc12`, the displacement came to 5.8%.

As for `CC(C)CC(=O)N1c2ccccc2NC2=C(C(=O)CC(C)(C)C2)C1c1cccs1` (stereo not drawn), the displacement is -8.6%. The value for `O=C(O)/C=C/C(=O)Nc1ccc2c(c1)C(=O)c1ccccc1C2=O` was -21%. The value for `CCn1c2ccccc2c2cc(NC(=O)Cc3cccs3)ccc21` was -4.5%. In the case of `Cc1ccccc1N1C(=O)c2ccc(C(=O)Nc3ccc(O)cc3)cc2C1=O`, the displacement was -3.2%. `c1ccc(N(c2ccccc2)c2nc(-n3cnc4ccccc43)nc(-n3cnc4ccccc43)n2)cc1`: the displacement came out at 10%. For the compound `Cc1cccc(NC(=O)CN(c2cccc(Cl)c2)S(C)(=O)=O)c1`, the displacement was 3.9%. As for `CCOc1ccc(-c2cc(C(=O)N/N=C/c3ccc(C(=O)OC)cc3)[nH]n2)cc1`, the displacement was -5.4%. The same measure for `Cc1ccc(N2C(=O)C3C(c4cccc(F)c4)OC4(C(=O)c5ccccc5C4=O)C3C2=O)cc1` (stereo not drawn): 11.3%; for `COC(=O)C1=C(O)/C(=C\c2ccc(OCc3ccccc3)cc2)N=C1C`: -13.4%.

`COc1ccc(C2/C(=C(\O)c3ccc([N+](=O)[O-])cc3)C(=O)C(=O)N2CCCCCC(=O)O)c(OC)c1` (stereo not drawn): the displacement was 0%. Regarding `Cc1ccc(OCC(=O)Nc2ccc3oc(-c4cccnc4)nc3c2)cc1`, the displacement was found to be 11%. As to `Cc1cccc(OCCCCN2CCCC2)c1`, the displacement was -3.5%. As for `O=C(NCCCO)C(=O)Nc1ccc(Cl)c(C(F)(F)F)c1`, the displacement worked out at 11.4%.

In the case of `COc1ccc(OCC(O)CN2C(=O)c3ccccc3C2=O)cc1` (stereo not drawn), the displacement was 2.5%. The same measure for `O=C(COc1ccc2ccccc2c1)NNC(=O)c1ccccc1Cl`: -2%; for `CC(=O)Oc1ccc(-c2cccc(C(=O)N3CCOCC3)c2)cc1`: 7.3%. As to `CC(C)(C)C(=O)NC(NC(=S)Nc1ccccc1)C(Cl)(Cl)Cl` (stereo not drawn), the displacement came to 6%.

Regarding `CCOc1cccc(C=Nc2cccc3nsnc23)c1O`, the displacement is -1.6%. With `O=S(=O)(c1ccc(F)cc1)N1CCC(Cc2ccccc2)CC1`, the displacement is -14.7%. For the compound `CCOC(=O)C1=C(C)N(c2ccc(OCC)cc2)C(=O)/C1=C\c1ccco1`, the displacement is -87.8%. Regarding `CCOC(=O)c1cnn2c(C)cc(C)nc12`, the displacement was -4%.

On to `CCCC(=O)Nc1cccc(NC(=O)c2cc([N+](=O)[O-])ccc2Cl)c1`, for which the displacement is -1.1%. Turning to `O=C1CC(c2ccccc2)CC(O)=C1C=Nc1ccc(F)cc1` (stereo not drawn), the displacement is -1.2%. `COc1ccc(CN2CCN(C(=O)c3cccc(Cl)c3)CC2)cc1`: the displacement was -5.7%. Consider `CC1(C)Cc2ccccc2C(Nn2cnnc2)=N1`, for which the displacement worked out at 4.8%.

For the compound `COc1ccc(N2C(=O)/C(=C\C(Br)=C\c3ccccc3)SC2=S)cc1`, the displacement amounted to 5.6%. As for `CC1=C(C(=O)OCCc2ccccc2)C(c2ccccc2F)CC(=O)N1` (stereo not drawn), the displacement is -9.7%. `Cc1ccc(N2C(=O)c3ccccc3C2=O)cc1[N+](=O)[O-]`: the displacement was 2.6%.

On to `CSc1ccccc1NC(=O)CC1Nc2cc(C)c(C)cc2NC1=O` (stereo not drawn), for which the displacement was -41.6%. As to `C=CCc1ccccc1OCCOc1ccc(Cl)cc1/C=C1/SC(=S)N(C)C1=O`, the displacement is 6%. Turning to `N#Cc1c(-c2ccc(F)cc2)c(C#N)c2nc3ccccc3n2c1N`, the displacement was -8%. For the compound `COC(=O)c1c(-c2ccc(OC)cc2OC)csc1N`, the displacement was found to be 3.5%. For `O=C1OC(c2ccc(Cl)cc2)=C/C1=C\c1ccc(F)cc1`, the displacement is -12.7%. With `COc1ccc(CCNc2nc3c(c(=O)n(C)c(=O)n3C)n2C)cc1OC`, the displacement is -3%.

For the compound `COC(=O)c1ccc(Cl)c(NC(=O)C23CC4CC(C)(CC(C)(C4)C2)C3)c1`, the displacement worked out at 0.2%.

On to `CC(C)(C)C(=O)COc1ccc2c(-c3ccccc3)cc(=O)oc2c1`, for which the displacement was determined as 9.8%. For `CN(C)/C=C/C=C1\CC(=O)N(c2ccccc2)C1=O`, the displacement came to 5.5%. Regarding `CC(=O)c1ccc(NC(=O)CSc2nnc(NC(=O)CN3CCOCC3)s2)cc1`, the displacement is -28%.

As for `CCC(=O)Nc1ccc2nn(-c3ccc(Cl)cc3)nc2c1`, the displacement was -5.1%.

`Cc1cc(=O)[nH]nc1-c1ccc(Cl)c([N+](=O)[O-])c1`: the displacement is -6%.

With `Cc1cc2c(cc1C)NC(c1cccc(C(F)(F)F)c1)C1=C(CC(C)(C)CC1=O)N2` (stereo not drawn), the displacement is -15%. Take `O=C(/C=C/c1ccc(OCc2ccccc2)cc1)c1ccc2c(c1)OCCO2`: the displacement is 16.8%. For `Cc1cccc(OCC(=O)Nc2cc3c(C)cc(=O)oc3cc2C)c1`, the displacement came out at 5%. The value for `COC(=O)c1ccc(/C=C2\SC(=S)N(C(Cc3ccccc3)C(=O)O)C2=O)cc1` (stereo not drawn) was 6.6%; that for `CC1=Nc2ccccc2/C1=C/c1c(O)n(-c2ccc(Cl)cc2)c(=O)[nH]c1=O` was -7.4%. Take `COc1ccc(C(=O)N2CCN(Cc3cccc(Cl)c3)CC2)cc1`: the displacement came out at 6.3%.

For the compound `Cc1cc(NC(=O)c2cccnc2)ccc1Br`, the displacement is 5.6%. For the compound `COc1cc(C=O)ccc1OCc1c(C)no[n+]1[O-]`, the displacement is -4.6%. On to `Nc1nonc1C(=O)N/N=C/c1cc(Cl)cc(Cl)c1O`, for which the displacement turned out to be 9%.

On to `CC(C)Oc1ccc(Cc2n[nH]c(=S)n2-c2ccccc2)cc1`, for which the displacement is -0.4%.

On to `COc1ccc(CCNC(=O)C2CC2(c2cccc(C)c2)c2cccc(C)c2)cc1OC` (stereo not drawn), for which the displacement is -5.8%.
